In all, about 150,000 compounds went through this assay and about 540 (0.36%) showed an effect of 50% or more. This is one part of the list.
Tested on: Plasmodium falciparum
Assay: Primary screen in NF54 nanoGlo assay, in single point, at 2uM, 72h; a lower Z score goes with more inhibition
Type: functional, Erythrocyte
Settings: timepoint 72 hour

SMILES	% Inhibition [%]	Z score
COCC(C)(C)NC(=O)N[C@H](C)C(O)(c1ccccc1)c1ccccc1	0	0.07
O=C(C1NCCCC1c1ccccc1)N1CCN(C2CCOC2)CC1 (stereo not drawn)	-18	1.97
COCc1ccc(C(=O)N[C@@H](C)CN2CCCCC2)o1	-18	2.77
O=S1(=O)NC(CN[C@H]2CCc3ncnn3C2)=Nc2ccccc21	-5	1.05
c1cn(-c2ccc(-n3ccnc3)nn2)cn1	-10	1.29
COc1cccc(CN2CCC[C@H](Cn3c(C)cnc3C3CCOCC3)C2)c1	2	-0.23
Cn1cc(CCN=C(N)N2CCN(c3ccc(F)cc3)CC2)cn1	-14	1.59
Cn1c(CN2CCCC(C3(C)NC(=O)NC3=O)C2)nc2ccccc21 (stereo not drawn)	-10	1.62
Cc1nc(N(C)C)ncc1-c1nc(-c2ccco2)nn1CCO	-5	0.6
CC(C)n1ncc2c(C(=O)N(C)C3CCCCC3)cc(-c3ccc4c(c3)OCCO4)nc21	-7	0.6
O=C(Cn1cnc2cccc(F)c2c1=O)N1CCN(c2ncccn2)CC1	-6	0.65
COc1ccccc1CN1CCC(CN(CC(C)C)C(=O)c2nonc2C)CC1	8	-1.11
O=c1c2ccccc2ncn1Cc1nc([C@H]2CCOC2)no1	-5	0.83
CCCN(C[C@H]1CCCCO1)C(=O)Nc1ccc(F)c(N2CCNC2=O)c1C	-3	0.62
Cc1ccc(CN2CCn3nnc(CCC(=O)N4CCOCC4)c3C2)s1	-7	1.39
CCOC(=O)C[C@H](c1cccc(Cl)c1)c1nn[nH]n1	-10	1.4
O=C(c1cn[nH]c1)N1CCC([C@H]2c3[nH]cnc3CCN2Cc2cccnc2)CC1	-7	1.02
COc1cc(Cl)c(NC(=O)[C@H]2C[C@H](OC)CN2S(C)(=O)=O)cc1C	3	-0.34
COC[C@@]1(C)CCN(C(=O)CCc2cncs2)C1	0	0.04
CCn1cc(CNc2[nH]nc(C)c2Br)cn1	2	-0.32
CCCCNC(=O)C(C)N1CCCC(C(=O)O)C1 (stereo not drawn)	-18	2.49
O=C(c1ccc2c(c1)OCCCO2)N1CCN(S(=O)(=O)c2ccc(Cl)cc2)CC1	-8	0.8
O[C@H]1CCN(c2ncc(C(F)(F)F)cc2Cl)C1	6	-1.01
C[C@@H](Cn1cncn1)NS(=O)(=O)c1ccc2c(c1)C(=O)N(C)C2=O	-2	0.37
COC(=O)c1c(NC(C)=O)c2cc(N[C@@H](C)CC(C)(C)OC)cnc2n1CCc1c[nH]c2ccccc12	5	-0.71
Cc1nc(C(C)C)sc1C(=O)N1CCNC(=O)C1	-11	1.78
CC(NC(=O)c1cccs1)C(c1cccs1)N1CCN(c2ccccc2)CC1 (stereo not drawn)	6	-0.95

SMILES	% Inhibition [%]	Z score
O=S(=O)(c1cccc(C(F)(F)F)c1)N1CCc2nc(-c3ccc(F)cc3)ncc2C1	10	-1.5
COc1ccc(N2C(=O)C3C4C=CC(C4=C4CCCCC4)C3C2=O)cc1 (stereo not drawn)	-2	0.23
CN(C)Cc1ccc(NC(=O)Cc2ccn[nH]2)c(F)c1	-13	1.81
Cc1csc([C@H](C)N(C)C[C@H]2CC[C@H](O)CC2)n1	-3	0.41
CCCCc1nc(CN(CCC)Cc2cccnc2)c[nH]1	-11	2.04
Cc1n[nH]c(C)c1CCC(=O)N1C[C@@H](CN2C[C@@H](C)O[C@@H](C)C2)[C@@H](CO)C1	-9	1.1
O=C(CCc1ccc(F)cc1F)N1C[C@H](O)[C@@H](F)C1	-8	1.5
O=C(c1cncc(Cl)c1)N1CC[C@H](Nc2ncccn2)[C@@H](O)C1	2	-0.27
Cc1cc(C)cc(S(=O)(=O)Nc2cnc(N3CCCCCCC3)c(C(=O)O)c2)c1	-13	1.29
CCC(=O)N1CCC(NC(=O)NC2c3cccc(F)c3CCC2C)C1 (stereo not drawn)	2	-0.24
CCC(NC(=O)C(CC(C)C)n1ccnc1)C(O)C(C)C (stereo not drawn)	19	-2.43
O=C(NCC1(CO)CC1)c1sccc1Cl	0	0.01
COCCO[C@H]1CCC12CCN(S(=O)(=O)c1c(C)noc1C)CC2	3	-0.36
Cc1nn(-c2ccc(F)cc2)c(C)c1S(=O)(=O)N1CCC(C(=O)NC[C@H]2CCCO2)CC1	7	-1.02
COCCN(Cc1nnc(C)o1)CC(F)(F)F	-4	0.65
O=C1NCC(=O)N2CCN(CC(c3ccccc3)c3ccccc3)C[C@@H]12	-6	0.99
COC(=O)[C@@H]1CC(F)(F)CN1C(=O)OC(C)(C)C	11	-1.25
Cc1noc(C)c1CN(C)C1CCCCC1N(C)Cc1c(C)noc1C (stereo not drawn)	-7	1.24
O=C(c1ccc(Cl)cc1)c1c[nH]c2c(F)cc(F)cc2c1=O	36	-4.88
CC(C)C(NC1CC(C)N(C2CC2)C1)c1ccccc1 (stereo not drawn)	-4	0.44
Cc1noc(C2(NC(=O)Cc3ccccc3C)CCCCC2)n1	-12	1.22
O=C(O)[C@@H]1CCCCN1S(=O)(=O)CCc1cccc(Cl)c1	-14	1.68
Cc1nc(O)cc(CNS(=O)(=O)c2cccc(C(=O)NC3CCC3)c2)n1	-3	0.41
COc1cccc(C2C(NC(C)=O)CCN2C2CC2)c1 (stereo not drawn)	12	-1.21
O=C(Cc1ccsc1)NC1(c2cccs2)CCOCC1	1	-0.13
CC(C)C[C@H]1C(=O)NCCCN1C(=O)c1ccn(C(C)C)n1	-1	0.18
CC(C)(C)[C@H]1CCCN(C(=O)c2cncnc2)CC1	-10	1.91

Source: ChEMBL document CHEMBL4888484, “Replenishing the malaria drug discovery pipeline: Screening and hit evaluation of the MMV Hit Generation Library 1 (HGL1) against asexual blood stage Plasmodium falciparum ,using a nano luciferase reporter read-out” (2022)
